From the supplement of paper PMC12340641 come the findings set out here.

Over roughly 1,000 compounds, “relative growth recovery (pomalidomide 10 uM = 100%, DMSO = 0%)” has its median near -1.6; the highest 2% begin near 21. The list shows a part of the results.

The assay concerns HEK293FT dCK*-IKZF1. Kind of assay: relative growth recovery (pomalidomide 10 uM = 100%, DMSO = 0%); higher = more growth rescue (IKZF1 fusion degradation). Conditions: compound concentration: 5 uM; AraC concentration: 0.3 uM; overnight pretreatment + 4 days AraC. On the procedure:
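Growth recovery screen of the molecular-glue-like (Specs) library. HEK293FT cells expressing a dCK*-IKZF1 fusion (primary) or dCK* alone (counter) were pretreated overnight with compound at 5 uM, then given 0.3 uM AraC for 4 days. Hoechst nuclei were counted by imaging. Primary: normalised to pomalidomide (100%) and DMSO (0%), mean of 2 replicates. Counter: normalised to no-AraC (100%) and AraC+DMSO (0%), single replicate.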
`CNC(=O)C(c1cccc(Nc2ncc(C)s2)n1)C1CCN(C(=O)C2CCCCC2)CC1` (stereo unspecified): the relative growth recovery turned out to be 1.55%. Consider `Cc1cc(NS(=O)(=O)c2ccc(NC(=O)c3ccc(C)c(C)c3)cc2)nc(C)n1`, for which the relative growth recovery is -5.74%. For the compound `CCCc1cnc(Nc2cccc(C3CCN(C(=O)[C@@H](N)C(C)O)CC3)n2)s1` (stereo partly specified), the relative growth recovery was -18.6%. In the case of `O=S(=O)(Nc1ncccn1)c1ccc(-n2cnnn2)cc1`, the relative growth recovery was -1.73%. Consider `CCCCc1cnc(Nc2cccc(C3CCN(C(=O)C(C)(C)NC(=O)COC)CC3)n2)s1`, for which the relative growth recovery is -1.08%.

As to `O=C(Nc1ccc(S(=O)(=O)Nc2ccccn2)cc1)c1ccncc1`, the relative growth recovery is -1.46%.

For `COCC(C)NC(=O)CN1CCC(c2cccc(Nc3ncc(C)s3)n2)CC1` (stereo unspecified), the relative growth recovery is -1.86%.

In the case of `Cc1cc(C)nc(NS(=O)(=O)c2ccc(NC(=O)C34CC5CC(CC(C5)C3)C4)cc2)n1`, the relative growth recovery amounted to 1.28%. As for `Cc1cc(C)c(OCC(=O)Nc2ccc(S(=O)(=O)Nc3nc(C)cc(C)n3)cc2)c(C)c1`, the figure is -0.38%. Regarding `Cc1cnc(Nc2cccc(C3CCCN3C(=O)CCc3cccc(Cl)c3)n2)s1` (stereo unspecified), the relative growth recovery is 8.7%.

For `Cc1ccc(Nc2nc(C3CCCN3C(=O)/C=C/c3csc(C)n3)cs2)nc1` (stereo unspecified), the relative growth recovery stood at 0.31%. For `Cc1ccc(C)c(OCC(=O)Nc2ccc(S(=O)(=O)Nc3ccccn3)cc2)c1C`, the relative growth recovery was -3.9%. In the case of `Cc1cc(C)c2[nH]c3nc(SCC(=O)Nc4ccc(Cl)cc4)nnc3c2c1` it was -11.9%; in that of `Cc1cc(OCC(=O)Nc2ccc(S(=O)(=O)Nc3ccccn3)cc2)ccc1Cl`, -1.66%; in that of `CCCc1cnc(Nc2cccc(C3CCN(C(=O)Cn4c(CC(C)C)nc5ccccc54)CC3)n2)s1`, -2.13%. As for `Cc1cc(OCC(=O)Nc2ccc(S(=O)(=O)Nc3ncccn3)cc2)cc(C)c1Cl`, the figure is -2.15%; as for `Cc1cnc(Nc2cccc(C3CCN(CC(=O)Nc4c(F)cccc4F)CC3)n2)s1`, -13.4%.

On to `COc1ccc(CC(=O)Nc2ccc(S(=O)(=O)Nc3nccc(C)n3)cc2)cc1`, for which the relative growth recovery is -17.5%. As for `COc1ccc(C(=O)Nc2ccc(S(=O)(=O)Nc3cc(C)nc(C)n3)cc2)cc1`, the figure is -9.89%; as for `CC(=O)N1CCCC(c2csc(Nc3ccc(C)cn3)n2)C1` (stereo unspecified), -5.95%.

For `COc1cc(NS(=O)(=O)c2ccc(Nc3nc(-c4c(C)nc5ncccn45)cs3)cc2)nc(OC)n1`, the relative growth recovery was -0.58%. In the case of `Cc1cnc(Nc2ccc(C(=O)N3CCC=C(CCC(=O)NO)C3)cn2)s1` it was 0.16%; in that of `Cc1ccc(N2CC(C(=O)Nc3ccc(S(=O)(=O)Nc4ncccn4)cc3)CC2=O)cc1C` (stereo unspecified), -1.26%; in that of `CC(=O)NC1(C(=O)N2CCC(c3cccc(Nc4ncc(C)s4)n3)CC2)CCCCC1`, -20.7%. In the case of `Cc1cnc(Nc2cccc(C3(C(N)=O)CCN(C(=O)C4CCCCC4)CC3)n2)s1`, the relative growth recovery was -18.2%.

With `COc1cc(NS(=O)(=O)c2ccc(NC(=O)COc3ccc(C)cc3)cc2)nc(OC)n1`, the relative growth recovery was 1.75%.

Take `CCCc1cnc(Nc2cccc(C3CCN(C(=O)[C@@H]4CCCN4CCO)CC3)n2)s1`: the relative growth recovery was -17.4%. For the compound `O=C1CCC(N2C(=O)c3cccc(N4CCN(C5CCC(C(=O)O)CC5)CC4)c3C2=O)C(=O)N1` (stereo unspecified), the relative growth recovery came out at 1.55%. In the case of `O=C(Nc1ccc(S(=O)(=O)Nc2ncccn2)cc1)C1COc2ccccc2O1` (stereo unspecified) it was -0.865%. For `O=C(C1CCCCC1)N1CCOC(c2cccc(Nc3nccs3)n2)C1` (stereo unspecified), the relative growth recovery is -3.1%. As for `O=C(/C=C/c1ccccc1)N1CCCC(c2csc(Nc3ccccn3)n2)C1` (stereo unspecified), the figure is 31.2%; as for `O=C(C1CCCCC1)N1CCOC(c2cccc(Nc3ncc(Cc4ccccc4Cl)s3)n2)C1` (stereo unspecified), 1.11%; as for `Nc1nc(N)c2ncn([C@@H]3CCC[C@@H](N)[C@H]3O)c2n1`, -2.03%. In the case of `O=S(=O)(Nc1ccc(S(=O)(=O)Nc2ncccn2)cc1)c1ccc(F)cc1` it was 1.11%. `Cc1csc(Nc2cccc(C3CN(C(=O)CCCc4ccc(F)cc4)CCO3)n2)n1` (stereo unspecified): the relative growth recovery is 25.2%. As for `Cc1ccc(Cl)cc1NC(=O)CSc1nnc2c(n1)[nH]c1c(C)ccc(C)c12`, the figure is 4.4%; as for `Cc1nc(Nc2cccc(C3CCN(CC(=O)NCc4ccccn4)CC3)n2)sc1C`, -0.91%.

With `CCCN1CC(C(=O)N2CCC(c3cccc(Nc4ncc(C)s4)n3)CC2)CC1=O` (stereo unspecified), the relative growth recovery was -5.35%.

With `O=C(Nc1ccc(S(=O)(=O)Nc2ncccn2)cc1)c1cccc(Br)c1`, the relative growth recovery is -4.75%. As to `Cc1nc(Nc2cccc(C3CCN(C(=O)c4n[nH]c5c4CCCC5)CC3)n2)sc1C`, the relative growth recovery was found to be 12.1%. In the case of `O=C(CSc1nc2ccccc2n1Cc1ccccc1)Nc1ccccn1` it was 5.77%; in that of `Cc1cnc(Nc2cccc(C3CN(C(=O)Cn4ccnc4)CCO3)n2)s1` (stereo unspecified), -7.95%. In the case of `Cc1cnc(Nc2cccc(C(CO)C3CCN(C(=O)c4cccc(Cl)c4F)CC3)n2)s1` (stereo unspecified) it was -0.545%; in that of `CC(=O)Nc1ccc(S(=O)(=O)Nc2ccccn2)cc1`, -5.84%; in that of `Cc1cc(C)nc(NS(=O)(=O)c2ccc(NC(=O)/C=C/c3ccccc3)cc2)n1`, 2.52%. As to `O=C1CCCN1CCOCC(=O)N1CCOC(c2cccc(Nc3nccs3)n2)C1` (stereo unspecified), the relative growth recovery stood at 0.03%. As for `COc1nccnc1NS(=O)(=O)c1ccc(NC(=S)NC(=O)/C=C/c2cccs2)cc1`, the figure is 0.23%; as for `CC1CCc2cc(F)ccc2N1C(=O)CSc1nnc2c(n1)[nH]c1ccccc12` (stereo unspecified), -3.45%.

Turning to `CCC(=O)Nc1ccc(S(=O)(=O)Nc2ncccn2)cc1`, the relative growth recovery is 3.52%. As for `CC(=O)Nc1ccc(Oc2ccc3c(c2)C(=O)N(c2ccc(C)cc2)C3=O)cc1`, the figure is 0.56%. With `Cc1cc(NS(=O)(=O)c2ccc(NC(=O)COc3ccc(Cl)cc3C)cc2)nc(C)n1`, the relative growth recovery was -1.09%. In the case of `O=C(CCCOc1ccccc1)Nc1ccc(S(=O)(=O)Nc2ncccn2)cc1` it was -2.81%. With `CCCOC(=O)Nc1ccc(S(=O)(=O)Nc2ncccn2)cc1`, the relative growth recovery was determined as 0.97%. As for `COc1cc(NS(=O)(=O)c2ccc(N3C(=O)C=CC3=O)cc2)nc(OC)n1`, the figure is -3.17%. In the case of `Cc1cc(CCCC(=O)N2CCCC2c2cccc(Nc3nccs3)n2)ccc1F` (stereo unspecified) it was 2.87%; in that of `COC(C)(C)C(=O)N1CCCC(c2csc(Nc3ccc(C)cn3)n2)C1` (stereo unspecified), 15.9%; in that of `O=C1CCC(N2C(=O)c3cccc(NC[C@H]4CC[C@H](C(=O)O)CC4)c3C2=O)C(=O)N1` (stereo partly specified), 50.3%.

Consider `Cc1nc(Nc2cccc(C3CN(C(=O)c4cccc5cccnc45)CCO3)n2)sc1C` (stereo unspecified), for which the relative growth recovery was 3.46%. Consider `Cc1ccnc(NS(=O)(=O)c2ccc(NC(=O)CC(C)C)cc2)n1`, for which the relative growth recovery amounted to 1.95%.

Turning to `O=C(COc1ccccc1Cl)Nc1ccc(S(=O)(=O)Nc2ncccn2)cc1`, the relative growth recovery worked out at 1.35%. On to `Cc1nc(Nc2cccc(C3CCCN3C(=O)CCOc3cccc(F)c3)n2)sc1C` (stereo unspecified), for which the relative growth recovery turned out to be 8.19%. As for `O=C1CCC(N2C(=O)c3cc(F)c(N4CCC(Cn5cc(C(=O)O)cn5)CC4)cc3C2=O)C(=O)N1` (stereo unspecified), the figure is -2%. In the case of `Cc1ccnc(NS(=O)(=O)c2ccc(NC(=O)c3cc(Cl)ccc3Cl)cc2)n1`, the relative growth recovery stood at 2.1%. As to `O=C(CN1CCN(CCO)CC1)N1CCC(c2cccc(Nc3ncc(-c4ccccc4)s3)n2)CC1`, the relative growth recovery was -11.2%. In the case of `COc1ccc(-c2csc(Nc3ccc(S(=O)(=O)Nc4nc(C)cc(C)n4)cc3)n2)cc1OC` it was 1.99%; in that of `Cc1cnc(Nc2cccc(C3CN(C(=O)COc4cccc(F)c4)CCO3)n2)s1` (stereo unspecified), -0.58%; in that of `Cc1ccnc(Nc2nc(-c3sc(NC(=O)c4ccccc4)nc3C)cs2)c1`, 111%.

Regarding `CC(=O)N1CCCC1c1cccc(Nc2nccs2)n1` (stereo unspecified), the relative growth recovery is -4.52%.

For `O=C(CCc1[nH]nc2c1CCCC2)N1CCC(c2cccc(Nc3nccs3)n2)CC1`, the relative growth recovery was -17.6%. Consider `NC(=O)CN1CCCCC1c1csc(Nc2ccccn2)n1` (stereo unspecified), for which the relative growth recovery was determined as 1.33%. For the compound `COCCOCC(=O)Nc1ccc(S(=O)(=O)Nc2cc(C)nc(C)n2)cc1`, the relative growth recovery is -1.1%. As for `CC(CC(=O)Nc1ccc(S(=O)(=O)Nc2ncccn2)cc1)c1ccccc1` (stereo unspecified), the figure is -3.27%. For the compound `CCCc1cnc(Nc2cccc(C3CCN(C(=O)C4CCCCN4C(=O)CN(C)C)CC3)n2)s1` (stereo unspecified), the relative growth recovery is -2.86%. In the case of `Cc1csc(Nc2cccc(C3CN(C(=O)CCc4nc(C)no4)CCO3)n2)n1` (stereo unspecified) it was 5.6%; in that of `CN(C)Cc1cnc(Nc2cccc(C3CCN(C(=O)C4CCCCC4)CC3)n2)s1`, -1.89%. `Cc1cc(C)nc(NS(=O)(=O)c2ccc(/N=C3/NC(=O)CS3)cc2)n1`: the relative growth recovery is -0.9%. As for `CCc1ccc(OCC(=O)Nc2ccc(S(=O)(=O)Nc3ccccn3)cc2)cc1`, the figure is 2.62%; as for `Cc1cnc(Nc2cccc(C3CCN(C(=O)C4C5C=CC(C5)C4C(=O)NCC(C)C)CC3)n2)s1` (stereo unspecified), -13.6%. As for `Cc1cc(C)c(S(=O)(=O)Nc2ccc(S(=O)(=O)Nc3ncccn3)cc2)c(C)c1`, the figure is 6.84%; as for `Cc1cc(C)nc(NS(=O)(=O)c2ccc(NC(=O)c3ncoc3-c3ccccc3)cc2)n1`, -1.47%. Take `COc1cc(NS(=O)(=O)c2ccc(NC(=O)c3ccc(OC)c(OC)c3)cc2)nc(OC)n1`: the relative growth recovery was -4.05%.

As for `Cc1cnc(Nc2cccc(C3CN(C(=O)CCn4cnc5ccccc54)CCO3)n2)s1` (stereo unspecified), the relative growth recovery was 15.2%. In the case of `CCCc1cnc(Nc2cccc(C3CCN(C(=O)C4COCCN4)CC3)n2)s1` (stereo unspecified) it was -19.6%. In the case of `CCOc1ccccc1C(=O)Nc1ccc(S(=O)(=O)Nc2nccc(C)n2)cc1` it was -17.9%; in that of `CCCc1cnc(Nc2cccc(C3CCN(C(=O)[C@@H]4CCCCN4)CC3)n2)s1`, -14.8%.

Take `CC(C)C(=O)N1CCOC(c2cccc(Nc3nccs3)n2)C1` (stereo unspecified): the relative growth recovery was 0.125%. As for `COc1nccnc1NS(=O)(=O)c1ccc(N)cc1`, the figure is -13.6%.

Consider `Cc1cnc(Nc2cccc(C3CN(C(=O)CCOc4cccc(F)c4)CCO3)n2)s1` (stereo unspecified), for which the relative growth recovery was determined as 15.7%. Consider `Cc1ccnc(NS(=O)(=O)c2ccc(NC(=O)c3ccco3)cc2)n1`, for which the relative growth recovery was -0.185%. As for `CCC(=O)Nc1ccc(S(=O)(=O)Nc2ccccn2)cc1`, the figure is -4.31%; as for `O=C(/C=C/c1ccco1)N1CCC(c2cc3ccccc3c(Nc3nccs3)n2)CC1`, -19%; as for `COCCC(=O)N1CCC(c2cccc(Nc3nc(C)c(C)s3)n2)CC1`, 9.99%.

`N#Cc1ccc(Oc2ccc(N3C(=O)c4ccc(Oc5ccccc5)cc4C3=O)cc2)cc1`: the relative growth recovery is -4.37%. Consider `COc1ccc2ccccc2c1/C=N/NS(=O)(=O)c1ccc(C)c([N+](=O)[O-])c1`, for which the relative growth recovery is -4.38%. As for `Cc1nc(Nc2cccc(C3CCCN3C(=O)C(C)(C)c3cccc(F)c3)n2)sc1C` (stereo unspecified), the figure is -1.4%; as for `COc1cc(SC)ccc1C(=O)Nc1ccc(S(=O)(=O)Nc2nccc(C)n2)cc1`, 5.25%.
